The other results are listed elsewhere or left out.
The sequences below were run against T1, OsWOX13 (Oryza sativa, UniProt Q5QMM3 1-267) (assay: protein-binding microarray (RPBM); PBS, 2% BSA, 51.3 ng/ul salmon testes DNA, 50 uM zinc acetate, 200 nM TF, 25 C, 1 h; high values mean tight binding). Settings: protein: recombinant; tags: N-terminal polyhistidine and DsRed monomer fusion (pET32a); label: CyDye5-dUTP incorporated in the synthesized complementary strand; 3' TTTTT single-stranded linker to array surface; dsDNA, one strand shown.
T1 sequence: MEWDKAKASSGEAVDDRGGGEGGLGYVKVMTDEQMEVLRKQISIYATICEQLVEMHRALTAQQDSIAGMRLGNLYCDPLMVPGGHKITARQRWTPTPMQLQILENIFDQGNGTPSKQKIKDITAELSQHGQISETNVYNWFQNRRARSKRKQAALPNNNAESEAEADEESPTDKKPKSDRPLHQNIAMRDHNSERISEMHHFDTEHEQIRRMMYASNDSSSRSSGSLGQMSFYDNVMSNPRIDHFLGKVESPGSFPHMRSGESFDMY
In short: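 For the binding signal, per-feature fluorescence intensity was read in arbitrary units on an Axon 4000B scanner. Before scanning, a 2% BSA-blocked custom Agilent array made double-stranded with Cy5-dUTP was washed after 1 h at 25 °C with 200 nM protein and 50 µM zinc acetate. The proteins were Ni–NTA-purified transcription factors with N-terminal polyhistidine and DsRed fusions, expressed in E. coli BL21-CodonPlus.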

Row | Sequence | binding signal
1 | ATATAAATCATGTATATAAACAACAATTCATGCAATTCACCGGAGTCACCTAGTGCAG | 5650 fluorescence intensity (a.u.)
2 | GAGTATAATTTTATTATTTCATTGAGCCCATGGTTGAACCCGGAGTCACCTAGTGCAG | 5230 fluorescence intensity (a.u.)
3 | TCCACTGTCATCAATATTGTAATTATTTATGGCGAATTTTCGGAGTCACCTAGTGCAG | 6310 fluorescence intensity (a.u.)
4 | GTCAAATCAAGAAGTAATCAGTTGCAAATCCTCGATCAGCCGGAGTCACCTAGTGCAG | 8770 fluorescence intensity (a.u.)
5 | GTCAATTAAATTCACAGTCACGTACGTTGGTCCGACTAATCGGAGTCACCTAGTGCAG | 7040 fluorescence intensity (a.u.)
6 | CCATTTAATTTATTTTACTCGGCCTGCATAGCGGAGAGGTCGGAGTCACCTAGTGCAG | 18200 fluorescence intensity (a.u.)
7 | GCTGCAACCAAATTAATTTCGTAAGCATATTAGTATATACCGGAGTCACCTAGTGCAG | 5820 fluorescence intensity (a.u.)
8 | GATGATTGGCATATGTAACATGTCGGAGGTTACGAACTATCGGAGTCACCTAGTGCAG | 43100 fluorescence intensity (a.u.)
9 | AAGATTCTATACTTTGATTGAAAAGTATAGTCTAATTATTCGGAGTCACCTAGTGCAG | 9870 fluorescence intensity (a.u.)
10 | CTCCTCCGTCTCCTACCCCTTTCTCGCCTTCCCCAACTTTCGGAGTCACCTAGTGCAG | 3410 fluorescence intensity (a.u.)
11 | ATAGATTAATGAATTATATGCCTCGTCATTTGGTGAAATACGGAGTCACCTAGTGCAG | 9390 fluorescence intensity (a.u.)
12 | TTGAATTGAGAAGAATGAGAGAGATTGTTAAAGTAGGGAGCGGAGTCACCTAGTGCAG | 3790 fluorescence intensity (a.u.)
13 | ATGAATGATTAAATGTGTGACGAAAAGTGAATCGAACGTACGGAGTCACCTAGTGCAG | 30700 fluorescence intensity (a.u.)
14 | ATATGATTTATAAGCCAGTGGATTTAATGTCCTAAGTTTACGGAGTCACCTAGTGCAG | 27000 fluorescence intensity (a.u.)
15 | AGTAGCCATAATTGGACTCGAACATCTGAGAAGCTGCGGCCGGAGTCACCTAGTGCAG | 5600 fluorescence intensity (a.u.)
16 | CATTGATTTACTATTTCTTAACAAATCCCGGCCCATTTCTCGGAGTCACCTAGTGCAG | 23800 fluorescence intensity (a.u.)
17 | TATATTAACAAGAGTAAATTAACCCTCGGTACATGTACTGCGGAGTCACCTAGTGCAG | 4080 fluorescence intensity (a.u.)
18 | ATTTCTTCAATTGATGGATATTTAGGCATGCATCAAGTTGCGGAGTCACCTAGTGCAG | 11600 fluorescence intensity (a.u.)
19 | CTAAATTTATTCCCATACACATACAACCACAAGCAAATATCGGAGTCACCTAGTGCAG | 4840 fluorescence intensity (a.u.)
20 | ACGAAAATCAAATTTGTTGACAAGTTAAGGGACCTTAAATCGGAGTCACCTAGTGCAG | 3740 fluorescence intensity (a.u.)
21 | ATAACTGACACCTTTCCATTTTAAAATTGCACATGCATTGCGGAGTCACCTAGTGCAG | 6850 fluorescence intensity (a.u.)

Row | Sequence | binding signal
22 | ATATAATTTGTTCATATGTATCCTCAAATAACTACTTGATCGGAGTCACCTAGTGCAG | 30500 fluorescence intensity (a.u.)
23 | CTCTGATTGTTCATCACTTATTATTTTCTTTGAGACCAGACGGAGTCACCTAGTGCAG | 44700 fluorescence intensity (a.u.)
24 | CAAAACCAAGATTTTAATTTAAAATATAATCTCACGATTTCGGAGTCACCTAGTGCAG | 5110 fluorescence intensity (a.u.)
25 | TACTTTGATTTGGGATTTGGGGATATGCATCCCACTTAATCGGAGTCACCTAGTGCAG | 14100 fluorescence intensity (a.u.)
26 | TTAAGTAATTATTAATTCTTTTCCTATCATTTGATTCATCCGGAGTCACCTAGTGCAG | 10900 fluorescence intensity (a.u.)
27 | CTTCCAATTTGAGATTTGAAAATTTTCAACTCGAAATTCGCGGAGTCACCTAGTGCAG | 8620 fluorescence intensity (a.u.)
28 | TCCAAATCCTACAATAATTGATTGAATCAAACACAGAAAGCGGAGTCACCTAGTGCAG | 41200 fluorescence intensity (a.u.)
29 | TATTATTTATTTTATTTGTGATTTGCTTTATTATCCACAGCGGAGTCACCTAGTGCAG | 7870 fluorescence intensity (a.u.)
30 | TTTGATATCCAATCAATCAACCGATGTGACATCTAAAATTCGGAGTCACCTAGTGCAG | 25200 fluorescence intensity (a.u.)
31 | ACTATCAATCAAAGATGCAAATTTTATAAAGTATATAAAACGGAGTCACCTAGTGCAG | 5210 fluorescence intensity (a.u.)
32 | TGGAAATTGGATGCTAAAGCTTTGTTTGCTTCCAACGACACGGAGTCACCTAGTGCAG | 7250 fluorescence intensity (a.u.)
33 | CTAAATTTTCTAGAACTATATTTACAGTACCGCTCAAGAACGGAGTCACCTAGTGCAG | 7340 fluorescence intensity (a.u.)
34 | GGTGTATAATTAAATTAGTTTACAAGTAAAGTAAGTGTGACGGAGTCACCTAGTGCAG | 13000 fluorescence intensity (a.u.)
35 | TTAATTAATCAATTTCCTATTTATTTCATGGCATGTAGGACGGAGTCACCTAGTGCAG | 41800 fluorescence intensity (a.u.)
36 | TGGATGCTTAATTGGGTTTAGGCCCATTATATTGAAGCCTCGGAGTCACCTAGTGCAG | 7080 fluorescence intensity (a.u.)
37 | TGCACAATCCGACTGTAAATTACGAGATGAATCTTTTGAGCGGAGTCACCTAGTGCAG | 4110 fluorescence intensity (a.u.)
38 | GGATTAATAGATAGTCTGACTTTTCTGATAACTATTTAAGCGGAGTCACCTAGTGCAG | 28400 fluorescence intensity (a.u.)
39 | CAAGATTGAACGAAATTTTAATGAAGCTTGATTCTTTATTCGGAGTCACCTAGTGCAG | 35900 fluorescence intensity (a.u.)
40 | ATCGCAATCAGGGGTGGAGACTGGAGAGAGCAGCATTCAACGGAGTCACCTAGTGCAG | 8630 fluorescence intensity (a.u.)
41 | AATTTTGATTGACAGGGAAAGAAGAATAGGAAGTTCTTCTCGGAGTCACCTAGTGCAG | 35500 fluorescence intensity (a.u.)
42 | GTTTTAAATTACGTGTTTTAGGTTTGTCCTAAGTCAAATACGGAGTCACCTAGTGCAG | 6220 fluorescence intensity (a.u.)

From PMC7819943, “Rice protein-binding microarrays: a tool to detect cis-acting elements near promoter regions in rice”
